Test results from PubChem BioAssay AID652104 (National Center for Advancing Translational Sciences (NCATS), 2013).
About 7,200 (1.8%) of roughly 410,000 compounds were called active. Inconclusive means that the source gave no clear call. Such entries were picked first, then a sample of the others. Calls follow the shape of the dose curve; as a rule, active = well fitted activation curve with a large enough effect; inconclusive = small, poorly fitted or top-dose-only effect, or another doubt; inactive = no such curve, though single readings can be large or run the other way. Potencies of inconclusive entries are left out as doubtful fits.

Assay: qHTS of TDP-43 Inhibitors; also: nearly all actives have a fitted effect of over 50% in size; as to growth rescue (activation): % of control where 0% means no effect
Settings: TDP-43 expressing yeast growth rescue, BacTiter-Glo, 24 h; growth rescue (activation): at 46.1 µM (top of the series)
Outline: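 Cell-based yeast growth screen: TDP-43 expression induced in galactose, inoculum OD600=0.02 after raffinose pregrowth to mid-log. Read-out BacTiter-Glo luminescence at 24 hr, 30 deg C; inhibition of toxicity seen as signal increase.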
Potency is read from the fitted curve at half-maximal effect; tags tell the direction and shape of the fitted curve.

SMILES | Potency | growth rescue (activation)
COc1cc(C[C@@H](C)N)c(OC)cc1I | inconclusive [activator, partial curve, poor fit] | 
Cc1cccc(NP(=O)(Oc2ccccc2F)Oc2ccccc2F)c1 | inconclusive [activator, partial curve] | 
CCOc1ccc(C(=O)Nc2cc(NC(=O)c3ccco3)ccc2OC)cc1Br | inconclusive [activator, partial curve] | 
CCCCn1c(O)c(C(CC)=NCCc2ccccc2)c(=O)[nH]c1=O | inconclusive [activator, single point] | 
CCOC(=O)C(O)(c1ccc(N(C)C(=O)COc2ccccc2)cc1)C(F)(F)F (stereo not drawn) | inactive | 
C[C@@H]1CCCCO[C@H](CN(C)Cc2ccccc2)[C@@H](C)CN([C@H](C)CO)C(=O)c2cc(NC(=O)c3ccccc3)ccc2O1 | inconclusive [activator, full curve, poor fit] | 
COC(=O)C1=C(c2ccc(F)cc2OCc2ccccc2)C[C@@H]2CC[C@H]1N2C(=O)NCCOc1ccccc1Cl | inconclusive [activator, partial curve, poor fit] | 
CCOc1ccccc1N1C(=O)NC(=O)/C(=C/c2ccc3c4c(cccc24)CC3)C1=O | inactive | 
O=S(=O)(c1ccccc1)C1CN1c1c(F)c(F)c(F)c(F)c1F (stereo not drawn) | inactive | 
CCOc1ccc2nc(NC(=O)c3cccn(Cc4ccc(Cl)cc4)c3=O)sc2c1 |  | inconclusive: 14.2% [activator]
Cc1nc(-c2cccc(NC(=O)c3ccc(Cl)c(S(=O)(=O)N4CCCC4)c3)c2)cs1 | inconclusive [activator, single point] | 
CCC(=NC1CC1)c1c(O)n(C2CCCCC2)c(=O)[nH]c1=O | inconclusive [activator, single point] | 
Nc1c(C(=O)OC2CCCCC2)c2nc3ccccc3nc2n1CC1CCCO1 (stereo not drawn) | active: 28.2 µM | 
COC(=O)C1=C(c2ccc(F)cc2OCc2ccccc2)C[C@@H]2CC[C@H]1N2C(=O)NCc1ccc(Cl)cc1 | inconclusive [activator, partial curve] | 
CCOC(=O)c1ncn2c1CN(C)C(=O)c1cc(F)ccc1-2 | inconclusive [activator, partial curve] | 
Cc1nonc1OCCNc1ccc([N+](=O)[O-])c2cccnc12 | inconclusive [activator, partial curve] | 
O=C(Nc1ccc2c(c1)OCCO2)c1cccn(Cc2cccc(F)c2)c1=O | active: 35.5 µM | 
Cc1cnn(-c2cc(Oc3ccccc3)ncn2)c1 | inconclusive [activator, single point] | 
